# Out of some 52,000 compounds screened, about 1,700 (3.3%) were called active. Cut-off read from the data, not from the text of the source: active = survival mostly below about 52% (no sharp cut-off); inactive = mostly above about 56%. The list shows a part of the results.
# Test system: Wild type
# Assay: growth inhibition of S. aureus wild type versus tarO mutant, primary screen, teichoic acid synthesis inhibitors, RN4220, OD600 (AID 463173)
# Conditions: S. aureus RN4220 wild type/DeltatarO growth, OD600, 18 h, active compounds read low, screened at 18.75 µg/mL (by protocol)
row,SMILES,survival
1,CCC(C)n1c(=N)c(S(=O)(=O)c2ccc(C)cc2)cc2c(=O)n3cc(C)ccc3nc21 (stereo unspecified),inactive: 85%
2,Cc1ccccc1-c1noc(CSc2nnc(Cc3ccccc3)n2-c2ccc(F)cc2)n1,inactive: 83%
3,COc1ccc(-c2noc(CSc3nnc(-c4ccncc4)n3-c3ccccc3)n2)cc1,inactive: 82%
4,COC(=O)C1CCN(S(C)(=O)=O)CC1,inactive: 102%
5,Cc1ccc(CNC(=O)c2c(-c3ccccc3F)noc2C)o1,inactive: 80%
6,Cc1cc(C(=O)O)on1,inactive: 109%
7,COc1cccc(NC(=O)Cn2c(=O)n(CCCC(=O)NCc3ccc4c(c3)OCO4)c(=O)c3ccccc32)c1,inactive: 111%
8,O=S(=O)(Cc1ccccc1)N1CCC(c2nc(-c3cccs3)no2)CC1,inactive: 110%
9,Cc1cccc(C(=O)Nc2ccc(N3CCC(CCN4CCOCC4)CC3)c(C(=O)O)c2)c1,inactive: 53%
10,O=C(Nc1ccc(S(=O)(=O)N2CCC(c3nc4ccccc4s3)CC2)cc1)c1ccccc1F,inactive: 87%
11,Cc1cc(C)c2[nH]c(=O)c(CN(C3CCCCC3)C(c3nnnn3Cc3ccco3)C(C)C)cc2c1 (stereo unspecified),inactive: 107%
12,CCN(C(=O)NCc1noc2ccccc12)c1cc(C)ccc1C,inactive: 85%
13,CCOc1ccc(CNC(=O)CCn2cccn2)cc1OC,inactive: 75%
14,Cc1ccc2nc(/C(C#N)=C/c3ccc(-c4cccc(Cl)c4)o3)[nH]c2c1,inactive: 14%
15,CCOC(=O)c1nc(Nc2cccc(C)c2)c2ccccc2n1,inactive: 83%
16,CCOc1ccc(NC(=O)CN2C(=O)C(c3ccccc3)=NC23CCCCCC3)cc1,inactive: 123%
17,Cc1cccc(Cn2c(C)c(C)c3cc(C(=O)NCc4ccc(C)o4)ccc32)c1,inactive: 93%
18,Cc1cc(NC(=O)CN(C)S(=O)(=O)c2ccc3c(c2)CCC(=O)N3)ccc1Br,inactive: 80%
19,CCOc1ccc(CCNC(=O)c2cc3c(-c4cccc(OC)c4)nn(C)c3s2)cc1OCC,inactive: 72%

row,SMILES,survival
1,Cc1cccc(CS(=O)(=O)Cc2ccc(C(=O)NCc3ccc(Cl)cc3)o2)c1,inactive: 134%
2,CCCCC12CN3CC(C)(CN(C1)C3c1c(C)[nH]c(=O)[nH]c1=O)C2=O (stereo unspecified),inactive: 85%
3,CCN(CCCNC(=O)c1nn(-c2ccc(OC)cc2)c(=O)c2c1c1ccccc1n2C)c1cccc(C)c1,inactive: 80%
4,COc1ccc(-c2cccc(NS(=O)(=O)c3cc(C)c(Cl)cc3C)c2)nn1,inactive: 124%
5,O=C(Sc1cccc2cccnc12)N1CCOCC1,inactive: 126%
6,CCC(C(=O)NCCc1ccc(Cl)cc1)n1nc(C)c2c(C)n(-c3ccccc3)nc2c1=O (stereo unspecified),inactive: 82%
7,Cc1cccc(C(CC(=O)NCC2(c3ccccc3)CCCC2)c2ccccc2)c1O (stereo unspecified),active: 2%
8,Cc1nc2nc(SCC(=O)NC(C)c3ccccc3)nn2c(C)c1Cc1c(F)cccc1Cl (stereo unspecified),inactive: 79%
9,COc1cccc(CSc2nc3n(n2)C(c2ccccc2C)C(C(=O)Nc2ccccc2OC)=C(C)N3)c1 (stereo unspecified),inactive: 66%
10,O=C(CSc1oc(-c2ccco2)nc1S(=O)(=O)c1ccc(Cl)cc1)c1ccccc1,inactive: 150%
11,COC(=O)c1ccc(NC(=O)CC2C(=O)N(c3cccc(OC)c3)C(=O)N2Cc2cccc(OC)c2)cc1 (stereo unspecified),inactive: 79%
12,CCOc1ccc(CN2C(=O)c3ccccc3Sc3ccc(C(=O)NCc4ccc(C)cc4)cc32)cc1,inactive: 82%
13,Cc1ccc(CCNC(=O)CCSCc2ccc(Cl)cc2)cc1,inactive: 72%
14,Cc1ccc(-c2nc3c4cnn(-c5cc(Cl)ccc5Cl)c4ncn3n2)cc1,inactive: 92%
15,COCCCn1c(=N)c(C(=O)NC2CCCC2)cc2c(=O)n3ccccc3nc21,inactive: 92%
16,O=C(NCc1ccccc1)c1ccccc1C(=O)c1ncc[nH]1,inactive: 107%
17,CCC(=O)Nc1ccc2c(c1)N(C(C)=O)c1ccccc1CC2,inactive: 96%
18,Cc1ccc(S(=O)(=O)c2nnn3c2nc(Nc2ccc(C(C)C)cc2)c2sccc23)cc1C,inactive: 54%
19,CCOc1ccc(-n2c(SCc3nc(-c4ccccc4C)no3)nnc2-c2ccccc2)cc1,inactive: 84%

row,SMILES,survival
1,Cc1[nH]nc(CSSCc2n[nH]c(C)c2C(=O)NN)c1C(=O)NN,inactive: 97%
2,CC(C)Cc1nn2c(=O)cc(COC(=O)c3ccccc3NC(=O)c3ccccc3)nc2s1,inactive: 127%
3,CC(=O)Nc1ccc(NC(=O)CN2C(=O)CN(C)C(=O)c3ccccc32)cc1,inactive: 68%
4,O=C(c1cccs1)N1CCN(C/C=C/c2ccccc2)CC1,inactive: 97%
5,CCCn1c(=O)c2sccc2n2c(CCCC(=O)NCCOC)nnc12,inactive: 97%
6,CN(C)c1ccc(CNc2nc(-c3ccco3)nn2C(=O)c2cccc([N+](=O)[O-])c2)cc1,inactive: 86%
7,CCc1ccc(-n2c(C)nc3cc(C(=O)NCCc4ccccc4)ccc32)cc1,inactive: 94%
8,CN(C)c1ccc(CN(CC2CCCO2)C(=O)COc2ccc(Cl)cc2)cc1 (stereo unspecified),inactive: 86%
9,CC(=O)N1CCCc2cc(S(=O)(=O)N3CCCC(C(=O)NCc4ccc(Cl)cc4)C3)ccc21 (stereo unspecified),inactive: 88%
10,Cc1cc(O)c(C(c2cccc(Cl)c2)N2CCN(c3ccccc3)CC2)c(=O)n1Cc1ccco1 (stereo unspecified),inactive: 73%
11,COc1ccccc1NC(=O)CSc1ncc2c(n1)-c1cc(Cl)ccc1N(C)S2(=O)=O,inactive: 73%
12,CC(C)CC(=O)Nc1ccc(C(=O)OCc2cc(=O)n3nc(C4CCCCC4)sc3n2)cc1,inactive: 47%
13,Cc1nc(N2CCCC2)ncc1C(=O)Nc1ccccc1,inactive: 125%
14,COc1cccc(CN2C(=O)c3ccccc3C2C(=O)NCCc2ccc(OC)c(OC)c2)c1 (stereo unspecified),inactive: 68%
15,CCC1CN(C(=O)NCc2ccc(F)cc2)c2ccccc2O1 (stereo unspecified),inactive: 81%
16,Cc1ccc(NC(=O)c2ccco2)c(OCc2cc(=O)n3cc(C)sc3n2)c1,inactive: 74%
17,COc1ccc(-n2c(=O)c3c4c(sc3n(Cc3cc(=O)n5c(C)cccc5n3)c2=O)CCC4)c(OC)c1,inactive: 84%
18,COc1ccc(C2CC(=O)N3CN(C4CCCCC4)CSC3=C2C#N)cc1 (stereo unspecified),inactive: 138%
